Structures can show the parent of a compound that is named as a salt. Some of the results follow. Single values are uncertain, as repeats are few or missing.
tested on: SJNB8; assay: area under viability curve (10 nM-1 µM), viability relative to solvent or trametinib-only control (AUC (arbitrary, % viability x concentration range)); higher = less growth inhibition (more viable cells); conditions: 72 h compound exposure (96 h after seeding) h; trametinib co-treatment 0 µM
Description: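 Four neuroblastoma cell lines (KCNR, SKNBE, SJNB8, SKNAS) were seeded in 384-well plates. At 24 h, 1 µM trametinib or DMSO was added, followed by library compounds at 10 nM, 100 nM and 1 µM. Viability was read by MTT at 96 h and normalised to solvent-treated cells (DMSO arm) or to trametinib-only cells (trametinib arm). The area under the 3-point viability curve was computed in GraphPad Prism; units are as given (approx. 100000 = no effect).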
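Note: KCNR is a neuroblastoma cell line carrying an ALK mutation, in this DMSO arm without trametinib, viability was normalised to solvent-treated cells.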

Compound | area under viability curve
CC[C@H](Nc1nc(NCc2cnc(C)cc2C)c2ncn(C(C)C)c2n1)[C@@H](C)O [Fadraciclib] | 87400
O=C(O)c1nn(Cc2ccc(Cl)cc2Cl)c2ccccc12 [Lonidamine] | 101000
Cc1ncc(CNC(=O)N(CCCl)N=O)c(N)n1 [Nimustine HCl] | 107000
C[C@]12CCC(=O)C(O)=C1CC[C@@H]1[C@@H]2CC[C@]2(C)C(=O)CC[C@@H]12 [Formestane] | 91500
N.N.[Cl][Pt][Cl] [Cisplatin] | 105000
CC[C@@]1([C@H]2O[C@H]([C@H]3O[C@@](O)(CO)[C@H](C)C[C@@H]3C)C[C@H]2C)CC[C@H]([C@@]2(C)CC[C@]3(C[C@H](O)[C@@H](C)[C@@H]([C@H](C)[C@H](OC)[C@@H](C)C(=O)O)O3)O2)O1 [Monensin sodium] | 80400
C[C@]12CC[C@@H]3c4ccc(OC(=O)N(CCCl)CCCl)cc4CC[C@H]3[C@@H]1CC[C@@H]2OP(=O)(O)O [Estramustine phosphate sodium] | 65000
CC(=O)Oc1ccc(/C=C/c2cc(OC(C)=O)cc(OC(C)=O)c2)cc1 [Triacetylresveratrol] | 86800
C=C1C[C@@H]2[C@H](CC[C@]3(C)C(=O)CC[C@@H]23)[C@@]2(C)C=CC(=O)C=C12 [Exemestane] | 88500
N[C@@H](Cc1ccc(N(CCCl)CCCl)cc1)C(=O)O [Melphalan] | 94800
CCC(=O)CCCCC[C@@H]1NC(=O)[C@H]2CCCCN2C(=O)[C@H]([C@@H](C)CC)NC(=O)[C@H](Cc2cn(OC)c3ccccc23)NC1=O [Apicidin] | 76100
N[C@@H]1C[C@H]1c1ccccc1.N[C@H]1C[C@@H]1c1ccccc1 [Tranylcypromine hemisulfate] | 92000
